Assay results from US20120201826A1 (NOV IMMUNE S A, published 2012).

T1: recombinant human RANTES (huRANTES, Peprotech) (human, UniProt P13501 24-91)
T1 sequence: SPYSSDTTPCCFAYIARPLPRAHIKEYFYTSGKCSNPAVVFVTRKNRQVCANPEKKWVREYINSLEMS


Molecular target: T1, recombinant human RANTES (huRANTES, …)
Assay: cell-based or functional assay

Chemotaxis IC50 (nM); L1.2 cells expressing hCCR5, 1 nM huRANTES; scFv format [nM]	Binder
72	A9 scFv (scFv) [omitted - about 100 residues]DLGYCTNGVCWGIDYWGQGTMVTVSSNFMLTQPHSVSESPGKTVTISCTRSSGSIADNYVQWYQQRPGSAPTTIIYDDDQRLSGVPDRFSGSIDTSSNSASLSISGLRTEDEADYYCQSYDDSNDVFGGGTKLTVL
41	C10 scFv (scFv) [omitted - about 100 residues]VRGSSQYDFWSGSEFDYWGQGTMVTVSSSYVLTQPPSVSVAPGKTASISCGGDNIGGQNVHWYQQKPGQAPVLVIYYDTDRPSGIPERFSGSNSGNTATLSISRVEAADEADYYCQVWDVDSDHPWVFGGGTKLTVL
